# Measurements taken from the antibiotic and cytotoxicity screens of Wong et al. (2023).
# The list shows a part of the results.
# What was measured:
# HSkMC = human skeletal muscle cells; test: cytotoxicity call (relative viability < 0.9); settings: 10 µM
# HepG2 = test: cytotoxicity call (relative viability < 0.9); settings: 10 µM
# S. aureus RN4220 = test: growth inhibition call (relative growth <= 0.2); settings: 50 µM
Compound,cytotoxicity call (HSkMC),cytotoxicity call (HepG2),growth inhibition call (S. aureus RN4220)
CC(=O)CC(=O)O,inactive,inactive,inactive
CC(C)(C)C(=O)C[n+]1ccc(C(N)=O)cc1,inactive,inactive,inactive
Cc1noc(C)c1NC(=O)Nc1ccc2c(c1)C(=O)N([C@H](C)CO)C[C@H](C)[C@H](CN(C)S(=O)(=O)c1cn(C)cn1)O2,inactive,inactive,inactive
O=c1[nH]c(=O)c2cc(Br)ccc2[nH]1,inactive,active,inactive
C=CC[C@@H](CC(=O)N(CCO)Cc1ccccc1)C(=O)NCCOC(=O)[C@@H](CC=C)CC(=O)OC(C)(C)C,inactive,inactive,inactive
C[C@H]1CN([C@@H](C)CO)C(=O)Cc2cc(NC(=O)NC3CCCCC3)ccc2O[C@@H]1CN(C)S(=O)(=O)c1cn(C)cn1,inactive,inactive,inactive
C[C@H](CO)N1C[C@H](C)[C@H](CN(C)C)Oc2ccc(NS(=O)(=O)c3cn(C)cn3)cc2CC1=O,inactive,inactive,inactive
C[C@@H]1CN([C@@H](C)CO)C(=O)c2cc(NS(=O)(=O)c3ccc(F)cc3)ccc2O[C@@H](C)CCCCO[C@@H]1CN(C)Cc1ccccc1,inactive,inactive,inactive
Cc1ccc(S(=O)(=O)Nc2cccc3c2O[C@H](CN(C)C(=O)NC(C)C)[C@@H](C)CN([C@H](C)CO)C3=O)cc1,inactive,inactive,inactive
C[C@H]1CCCCO[C@H](CN(C)Cc2ccc(C(=O)O)cc2)[C@@H](C)CN([C@@H](C)CO)C(=O)c2cc(NS(=O)(=O)c3ccc(F)cc3)ccc2O1,inactive,inactive,inactive
Cc1ccc(S(=O)(=O)Nc2ccc3c(c2)C(=O)N([C@H](C)CO)C[C@H](C)[C@@H](CN(C)C(=O)Nc2ccccc2)OCCCC[C@@H](C)O3)cc1,inactive,inactive,inactive
